{"source": "PubChem BioAssay", "note": "Inconclusive means that the source gave no clear call. Such entries were picked first, then a sample of the others. Calls of active or inactive are those of the source.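 Rule for the calls: active = cell viability at or below a set limit in both duplicate runs, the limit being the all-compound median minus 4 SD (cut at about 23% in these data, passing the limit was not always enough); inconclusive = no clear call, values can overlap the other calls; inactive = the rest.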", "data": [{"assay": "viability of HCT116 without oncogenic beta-catenin – human colon tumor cells, pilot screen (AID 823);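 note: 0% = wells killed by 20 µM Hyamine and 100% = untreated DMSO cell wells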", "conditions": "HCT116 beta-catenin knockout viability, CellTiter-Glo, 60 h; at 10 µM; stronger effect = lower value", "values": [{"compound": "CCOC(=O)N1CCN(C(=O)c2ccc(CN(c3ccc(C)c(C)c3)S(C)(=O)=O)cc2)CC1", "viability": "inconclusive: 91.9%"}, {"compound": "COc1ccc(N(C)C(=O)CCS(=O)(=O)c2cccc3nonc23)cc1", "viability": "inconclusive: 92.4%"}, {"compound": "CCc1ccc(C2CC(c3cccc(OC)c3)n3nc(N)nc3N2)cc1", "note": "(stereo not given)", "viability": "inactive: 93.3%"}, {"compound": "CCOC(=O)c1cc2c(=O)n3ccccc3nc2n(CCCOC)c1=NC(C)=O", "viability": "inconclusive: 88.2%"}, {"compound": "CCOCCCNC(=O)C(NC(=O)c1ccc2c(c1)OCO2)c1ccc(OC)cc1", "note": "(stereo not given)", "viability": "inactive: 101%"}, {"compound": "Cc1ccc(C)c(NC(=O)CS(=O)(=O)c2c[nH]c3ccccc23)c1", "viability": "inactive: 96.5%"}, {"compound": "CCOc1ccc(S(=O)(=O)N(C)c2ccc(OCC(=O)Nc3ccc4[nH]c(=O)[nH]c4c3)cc2)cc1", "viability": "inconclusive: 101%"}, {"compound": "Cc1cccc(NC(=O)CS(=O)(=O)c2cn(C)c3ccccc23)c1C", "viability": "inconclusive: 97.7%"}, {"compound": "CC1=CCC(C(=O)O)C(C(=O)O)C1", "note": "(stereo not given)", "viability": "inconclusive: 101%"}, {"compound": "O=C(OCn1nnc2ccccc2c1=O)c1cccs1", "viability": "inactive: 103%"}, {"compound": "NC(=O)CCn1nc(-c2ccccc2)c2ccccc2c1=O", "viability": "inconclusive: 90.1%"}, {"compound": "CSc1nnc2c(n1)OC(c1cn(C)c3ccccc13)N(C(C)=O)c1ccccc1-2", "note": "(stereo not given)", "viability": "inconclusive: 96.5%"}, {"compound": "Cc1nc2ccccc2c(=O)n1CCCO", "viability": "inconclusive: 90.7%"}, {"compound": "Cc1ccc(N=Cc2c(O)n(C)c(=O)n(C)c2=O)nc1", "viability": "inconclusive: 113%"}, {"compound": "CCCC(=O)c1cc(F)c(N2CCN(CCC#N)CC2)cc1C", "viability": "inconclusive: 96.4%"}]}]}
